# According to US10183009B2, “Therapeutic compounds and uses thereof” (GENENTECH, INC., priority 2014, dated 2019):
# Molecular target: CECR2 (Homo sapiens (Human), UniProt Q9BXF3)
# Experiment: CECR2 TR-FRET Binding Assay
# Conditions: not given
# Text: IC50 Measurements for Inhibitors Using CECR2 TR-FRET Binding Assay
# His/Flag epitope tagged CECR2424-538 was cloned, expressed, and purified to homogeneity.
row,IC50 [nM],SMILES
1,5700,"C/C=C/Cn1cc(-c2ccc(C(=O)N(C)C)cc2)c2cc[nH]c2c1=O [Example 36, 4-[6-[(E)-but-2-enyl]-7-oxo-1H-pyrrolo[2,3-c]pyridin-4-yl]-N,N-dimethyl-benzamide]"
2,390,"C=CCn1cc(-c2cccc(C(=O)N(C)C)c2)c2cc[nH]c2c1=O [Example 1, 3-(6-allyl-7-oxo-1H-pyrrolo[2,3-c]pyridin-4-yl)-N,N-dimethyl-benzamide]"
3,3300,"C/C=C/Cn1cc(-c2ccc(C(=O)N3CCN(C)CC3)cc2)c2cc[nH]c2c1=O [Example 21, 6-[(E)-but-2-enyl]-4-[4-(4-methylpiperazine-1-carbonyl)phenyl]-1H-pyrrolo[2,3-c]pyridin-7-one]"
4,3500,"C/C=C/Cn1cc(-c2ccc(C(=O)N3CCCC3)cc2)c2cc[nH]c2c1=O [Example 33, 6-[(E)-but-2-enyl]-4-[4-(pyrrolidine-1-carbonyl)phenyl]-1H-pyrrolo[2,3-c]pyridin-7-one]"

# Molecular target: TAF1-BD2 (Homo sapiens (Human), UniProt P21675)
# Experiment: TAF1-BD2 TR-FRET Binding Assay
# Conditions: Assay: TAF-1
row,IC50 [nM],SMILES
1,12,"C=CCCn1cc(-c2ccc(Cl)c(C(=O)N3CCOCC3)c2)c2cc(C)[nH]c2c1=O [Example 89, 6-but-3-enyl-4-[4-chloro-3-(morpholine-4-carbonyl)phenyl]-2-methyl-1H-pyrrolo[2,3-c]pyridin-7-one]"
2,11,"C=CCCn1cc(-c2ccc(F)c(C(=O)N3CCOCC3)c2)c2cc(C)[nH]c2c1=O [Example 97, 6-but-3-enyl-4-[4-fluoro-3-(morpholine-4-carbonyl)phenyl]-2-methyl-1H-pyrrolo[2,3-c]pyridin-7-one]"
3,19,"C=CCCn1cc(-c2cc(F)cc(C(=O)N3CCOCC3C)c2)c2cc[nH]c2c1=O (stereo not drawn) [Example 49, 6-but-3-enyl-4-[3-fluoro-5-(3-methylmorpholine-4-carbonyl)phenyl]-1H-pyrrolo[2,3-c]pyridin-7-one]"
4,1600,"C/C=C/Cn1cc(-c2ccc(C(N)=O)c(Cl)c2)c2cc[nH]c2c1=O [Example 44, 4-[6-[(E)-but-2-enyl]-7-oxo-1H-pyrrolo[2,3-c]pyridin-4-yl]-2-chloro-benzamide]"
5,95,"C=CCCn1cc(-c2cccc(-c3nnc(C)o3)c2)c2cc[nH]c2c1=O [Example 18, 6-but-3-enyl-4-[3-(5-methyl-1,3,4-oxadiazol-2-yl)phenyl]-1H-pyrrolo[2,3-c]pyridin-7-one]"
